This is an account of results in the BET-seq Pho4 binding data (Le et al. 2018).

Some of the results follow. These are noisy estimates, calculated here from bound and input reads.

The target of this test is T1, Pho4 (S. cerevisiae) (UniProt P07270).
T1 sequence: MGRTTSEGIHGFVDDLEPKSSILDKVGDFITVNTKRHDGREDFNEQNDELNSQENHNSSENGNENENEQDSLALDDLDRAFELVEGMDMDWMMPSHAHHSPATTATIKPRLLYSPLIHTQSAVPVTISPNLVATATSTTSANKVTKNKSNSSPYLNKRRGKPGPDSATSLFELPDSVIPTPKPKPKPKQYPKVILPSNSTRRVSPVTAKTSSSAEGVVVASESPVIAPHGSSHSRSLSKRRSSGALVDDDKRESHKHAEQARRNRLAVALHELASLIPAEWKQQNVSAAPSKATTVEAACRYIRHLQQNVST
The test is described as follows: relative binding free energy (BET-seq); higher = weaker binding. The note with it: reference: library average.
Turning to GTTGGCACGTGTAATA, the “relative binding free energy” value came to 0.01 kcal/mol.

Turning to GATTTCACGTGAGCGG, the “relative binding free energy” value is 0.37 kcal/mol. Consider TAGCTCACGTGGTTAG, for which the “relative binding free energy” value was 0.19 kcal/mol. With TGTCTCACGTGAGGCG, the “relative binding free energy” value was 0.31 kcal/mol. As for TTAAGCACGTGTGCTA, the “relative binding free energy” value was -0.09 kcal/mol.

Consider TGTTTCACGTGAGAAC, for which the “relative binding free energy” value came to 0.56 kcal/mol.

As to GGGTACACGTGGCGAG, the “relative binding free energy” value turned out to be 0.08 kcal/mol. Then TGTTGCACGTGGTGTA, with -0.14 kcal/mol; and GGTCGCACGTGAGTAA, with 0.19 kcal/mol; and GTGTGCACGTGTAGAG, with 0 kcal/mol. The same measure for GTTTGCACGTGGGAGA: 0.07 kcal/mol; for TTGGTCACGTGCCTGG: 0 kcal/mol. Take CTGTGCACGTGCAGGG: the “relative binding free energy” value was -0.18 kcal/mol. The same measure for TTTACCACGTGGTGGG: -0.19 kcal/mol. As for GGTGGCACGTGGTATA, the “relative binding free energy” value is -0.05 kcal/mol. As to TGGGTCACGTGGGTGA, the “relative binding free energy” value was -0.06 kcal/mol.

As for TGGGCCACGTGGTCTT, the “relative binding free energy” value was determined as 0.02 kcal/mol.

Take ATGATCACGTGGGGTT: the “relative binding free energy” value came out at 0.06 kcal/mol. Take TTCATCACGTGATGTT: the “relative binding free energy” value is 0.09 kcal/mol. TTTTACACGTGACGAG: the “relative binding free energy” value was found to be 0.29 kcal/mol. In the case of GGCGGCACGTGCGTGA, the “relative binding free energy” value was -0.09 kcal/mol. As for GTGTCCACGTGTTTGG, the “relative binding free energy” value is 0.1 kcal/mol. Take AGCGTCACGTGCGTTG: the “relative binding free energy” value was -0.06 kcal/mol. Regarding ACTGGCACGTGGGAAT, the “relative binding free energy” value is -0.19 kcal/mol. The same measure for TAGGTCACGTGGGTGT: -0.05 kcal/mol; for TTAGGCACGTGATGGA: -0.1 kcal/mol. In the case of TCTGGCACGTGTTACT, the “relative binding free energy” value turned out to be 0.08 kcal/mol. Then TGGGCCACGTGGGGCT, with -0.2 kcal/mol; and TAGTGCACGTGGAGCT, with -0.05 kcal/mol. As for GTTGGCACGTGCTAGT, the “relative binding free energy” value was -0.17 kcal/mol.

Consider TAACGCACGTGCGGGG, for which the “relative binding free energy” value is -0.23 kcal/mol. Consider ATGTTCACGTGTCATA, for which the “relative binding free energy” value came to 0.28 kcal/mol.

Take AATGGCACGTGGGGAC: the “relative binding free energy” value was -0.2 kcal/mol. On to GATTGCACGTGTATTT, for which the “relative binding free energy” value amounted to 0.16 kcal/mol. For the sequence TGGTTCACGTGGGCAG, the “relative binding free energy” value is 0.14 kcal/mol. For the sequence GAGTGCACGTGGAGTT, the “relative binding free energy” value was 0.04 kcal/mol.

For TGGAGCACGTGCGCGT, the “relative binding free energy” value was -0.24 kcal/mol. Regarding TGAGACACGTGTGCGT, the “relative binding free energy” value turned out to be 0 kcal/mol. For the sequence TGGTACACGTGGGTAC, the “relative binding free energy” value was -0.17 kcal/mol. As to TAGGTCACGTGCGCGT, the “relative binding free energy” value is -0.09 kcal/mol. In the case of GGAGGCACGTGGGTCA, the “relative binding free energy” value was -0.15 kcal/mol. For the sequence ATGTGCACGTGTCGGA, the “relative binding free energy” value was -0.03 kcal/mol.

As for CATTGCACGTGATTTT, the “relative binding free energy” value stood at 0.1 kcal/mol. Regarding TGGTGCACGTGGTGCA, the “relative binding free energy” value was -0.06 kcal/mol. For the sequence AGGGGCACGTGGGCAA, the “relative binding free energy” value was -0.24 kcal/mol.

Take TCATACACGTGGTGTT: the “relative binding free energy” value is -0.19 kcal/mol. For ACTGGCACGTGGGTGG, the “relative binding free energy” value was -0.23 kcal/mol.

Take TTTCTCACGTGATCGT: the “relative binding free energy” value was determined as 0.28 kcal/mol.

As to TAGCGCACGTGTTTGT, the “relative binding free energy” value is -0.15 kcal/mol.

TCAGGCACGTGTCGTG: the “relative binding free energy” value is -0.11 kcal/mol. Take ATACGCACGTGTTGGA: the “relative binding free energy” value is -0.09 kcal/mol. TGAGTCACGTGTGCAT: the “relative binding free energy” value amounted to 0.12 kcal/mol. Then ATCGGCACGTGTGTTA, with -0.06 kcal/mol; and GGTTACACGTGTCAGT, with 0.22 kcal/mol; and TGCGTCACGTGTTATG, with 0.09 kcal/mol. For GTTTGCACGTGTTCGG, the “relative binding free energy” value came to 0.12 kcal/mol. As for GGTATCACGTGGGATC, the “relative binding free energy” value was 0.21 kcal/mol. As for TGTTCCACGTGTTGTT, the “relative binding free energy” value amounted to 0.08 kcal/mol. In the case of GTATGCACGTGTCATT, the “relative binding free energy” value came out at 0.01 kcal/mol. In the case of GTCGGCACGTGAACGG, the “relative binding free energy” value was determined as 0.25 kcal/mol. The same measure for CTTGGCACGTGAATGT: 0.01 kcal/mol; for TGTAACACGTGGGACG: -0.15 kcal/mol; for ATGGTCACGTGATTGA: 0.17 kcal/mol. On to GGGAGCACGTGGGGTG, for which the “relative binding free energy” value was -0.22 kcal/mol. Then TGAAGCACGTGCGGTT, with -0.13 kcal/mol. Turning to GTGGTCACGTGATGGC, the “relative binding free energy” value was 0.35 kcal/mol. Then AGGGTCACGTGGCAAA, with 0.07 kcal/mol; and GGTGCCACGTGGTTAG, with -0.12 kcal/mol; and AGATTCACGTGTTTAT, with 0.31 kcal/mol. TGCAGCACGTGTGTAG: the “relative binding free energy” value amounted to 0.02 kcal/mol. With GGCGTCACGTGCGCGG, the “relative binding free energy” value was -0.1 kcal/mol. Turning to GCATGCACGTGGTTGG, the “relative binding free energy” value was -0.02 kcal/mol. In the case of TGGTGCACGTGTTCCG, the “relative binding free energy” value is -0.01 kcal/mol. For TAGGCCACGTGGGTCG, the “relative binding free energy” value was -0.29 kcal/mol. Take GTAAACACGTGTGGGC: the “relative binding free energy” value is 0.18 kcal/mol. As for GGATCCACGTGGGGGC, the “relative binding free energy” value was -0.09 kcal/mol.

As to GGTTGCACGTGAGATT, the “relative binding free energy” value stood at 0.26 kcal/mol. For ACGGTCACGTGGTTAG, the “relative binding free energy” value was 0.01 kcal/mol. With AGGGTCACGTGTCAGC, the “relative binding free energy” value came to 0.17 kcal/mol. The same measure for GTTCTCACGTGTTGTT: 0.17 kcal/mol; for GGGAGCACGTGTGGCG: -0.15 kcal/mol.

For the sequence GTATTCACGTGCTTGG, the “relative binding free energy” value was found to be 0.21 kcal/mol. ATTGTCACGTGATAAT: the “relative binding free energy” value was found to be 0.15 kcal/mol. Take ATGTGCACGTGGATGT: the “relative binding free energy” value was 0.02 kcal/mol.

For AGTGACACGTGCGTGA, the “relative binding free energy” value was -0.01 kcal/mol. TTGCACACGTGTGGGC: the “relative binding free energy” value worked out at 0.12 kcal/mol.

TGCAGCACGTGTGGAA: the “relative binding free energy” value is -0.05 kcal/mol.

On to TGGAGCACGTGGGATG, for which the “relative binding free energy” value was -0.19 kcal/mol. The same measure for AGTGGCACGTGGTTTT: -0.07 kcal/mol. On to GCTCGCACGTGTTTGG, for which the “relative binding free energy” value was -0.1 kcal/mol. Consider TTGACCACGTGGGTCG, for which the “relative binding free energy” value is -0.19 kcal/mol. Consider GAGTGCACGTGAGTGG, for which the “relative binding free energy” value was found to be 0.26 kcal/mol. For GTGGGCACGTGACCGG, the “relative binding free energy” value stood at 0.03 kcal/mol. Then TTATACACGTGTGTCG, with -0.04 kcal/mol; and TCGTACACGTGCTATG, with 0.11 kcal/mol; and ATGAGCACGTGGCGGC, with -0.16 kcal/mol. Take GGCCGCACGTGTGGGG: the “relative binding free energy” value stood at 0.02 kcal/mol. For TGTGGCACGTGGCACG, the “relative binding free energy” value was -0.22 kcal/mol. Then TTTTTCACGTGTTTTA, with 0.28 kcal/mol.

For the sequence GGATTCACGTGTTCAG, the “relative binding free energy” value was 0.32 kcal/mol. Then GAGTACACGTGCTGTT, with 0.27 kcal/mol; and TGGATCACGTGGTTGA, with 0.08 kcal/mol; and TTTTCCACGTGTCTGT, with 0.13 kcal/mol. TATTTCACGTGCAGGC: the “relative binding free energy” value amounted to 0.46 kcal/mol. Consider TGGAGCACGTGGCGCG, for which the “relative binding free energy” value is -0.26 kcal/mol. As to GTTTGCACGTGCTGGG, the “relative binding free energy” value amounted to 0.15 kcal/mol. The same measure for GAGGGCACGTGCGGGC: -0.26 kcal/mol. Take AGATGCACGTGGTTTG: the “relative binding free energy” value is -0.08 kcal/mol. CTTAGCACGTGGGATT: the “relative binding free energy” value is -0.18 kcal/mol. The same measure for TAACTCACGTGTTTGT: 0.18 kcal/mol; for AAGGTCACGTGGGGCT: -0.1 kcal/mol; for AATAGCACGTGTTATA: -0.07 kcal/mol. Turning to CTTGGCACGTGGTGGT, the “relative binding free energy” value is -0.13 kcal/mol. ATGGTCACGTGAATCG: the “relative binding free energy” value turned out to be 0.39 kcal/mol.

With TGTGGCACGTGCGATG, the “relative binding free energy” value was -0.15 kcal/mol.
